Laboratory results from the RNAGym collection of RNA variant scans (doi:10.1093/nar/gkz1192).
The source gives no read counts; variants with many changes may rest on few reads.

B1: CPEB3 Ribozyme (parent)
chain: UAACAGGGGGCCACAGCAGAAGCGUUCACGUCGCAGCCCCUGUCAGAUUCUGGUGAAUCUGCGAAUUCUGCUGUAUAUCUC

Variants of: B1
Test: self-cleavage, relative activity (ratio to wild type); higher = more cleavage; in vitro, sequencing
Procedure, shortened: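 CPEB3 self-cleaving ribozyme mutant libraries were made by rounds of error-prone PCR, barcoded, and transcribed in vitro with T7 RNA polymerase for 5 hours at 37°C. Cleavage occurred during transcription and a 15 min DNase I step before EDTA stop. RNAs were reverse transcribed with template switching and Illumina-sequenced, with DNA sequencing mapping barcodes to variants. Relative activity is the variant's cleaved/total read fraction divided by wild type's (minimum 5 reads), averaged across three batches.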

| Variant | self-cleavage |
| --- | --- |
| A5G C29G U41C U43C | 0.19 |
| A5G C29G U74G | 0.14 |
| A5G C29U A64G | 0.42 |
| A5G C29U A64G U80C | 0.74 |
| A5G C29U C40A U76C | 0.62 |
| A5G C29U G52A A56G A57G | 0.09 |
| A5G C29U G63A | 0.73 |
| A5G C29U U80A | 0.62 |
| A5G C32A A45C A75U | 0.1 |
| A5G C32U A47U | 0.5 |
| A5G C32U U43C A57G U69C A75G | 0.03 |
| A5G C34A G61C U72A | 0.06 |
| A5G C34G A56G G70A U72C | 0.2 |
| A5G C34U C38U G73U | 0.21 |
| A5G C34U C50U U66A A75U | 0.09 |
| A5G C34U U69C | 0.28 |
| A5G C37G A56U | 0.45 |
| A5G C37G C38U A57G A64U | 0.09 |
| A5G C37G U60C C62G | 0.12 |
| A5G C38A U43C U51C A65G U69C | 0.04 |
| A5G C38A U43C U51C A65G U69C U76G | 0.19 |
| A5G C38A U60A | 0.35 |
| A5G C38A U60G U80C | 0.07 |
| A5G C38G U43C U80A | 0.29 |

| Variant | self-cleavage |
| --- | --- |
| A5G C38U A47C U49A U60C | 0.09 |
| A5G C38U C62U U69C U76A | 0.44 |
| A5G C38U G70C | 0.2 |
| A5G C39A A57G A75U | 0.35 |
| A5G C39A U67A U80C | 0.22 |
| A5G C39G C59G | 0.28 |
| A5G C39U U74C | 0.7 |
| A5G C40A A64G U69C | 0.21 |
| A5G C40A U41C | 0.75 |
| A5G C40A U41C A64G U69G U72A | 0.06 |
| A5G C40A U43C U80C | 0.22 |
| A5G C40U U43A | 0.25 |
| A5G C40U U54C U60A | 0.44 |
| A5G C40U U60A U69C | 0.13 |
| A5G C40U U67C U69C U72C | 0.14 |
| A5G C44A U80C | 0.55 |
| A5G C44U U58A U78C U80C | 0.15 |
| A5G C44U U60C | 0.71 |
| A5G C50A A57G U58A | 0.27 |
| A5G C50A A57G U66A | 0.27 |
| A5G C59U A64G | 0.15 |
| A5G C59U U60A U66C | 0.23 |
| A5G G6A A13U A15C A56G U60G U78A | 0.05 |
| A5G G6A A15U G42A U51A U72C | 0 |

| Variant | self-cleavage |
| --- | --- |
| A5G G6A A18G A35G A45G A75U | 0.03 |
| A5G G6A A20G G30C U31C | 0.08 |
| A5G G6A A21G A35G G63C U78C | 0.06 |
| A5G G6A A21G A56G U69C | 0.08 |
| A5G G6A A28G G53A | 0.08 |
| A5G G6A A28U | 0.33 |
| A5G G6A A45U U51A | 0.08 |
| A5G G6A A56G U69C | 0.18 |
| A5G G6A A57G | 0.1 |
| A5G G6A C14U A56G A75U | 0.42 |
| A5G G6A C23U | 0.07 |
| A5G G6A C23U U31C | 0.25 |
| A5G G6A C27U U41A | 0.1 |
| A5G G6A U43C U60C A75G U80C | 0.12 |
| A5G G6A U48C | 0.35 |
| A5G G6A U49C A64U A77U | 0.05 |
| A5G G6A U60C U74A | 0.41 |
| A5G G6A U60C U78C | 0.37 |
| A5G G6A U66C C81U | 0.08 |
| A5G G6A U69A | 0.09 |
| A5G G6C A13G G16A A18U A56C U80C | 0.28 |
| A5G G6C A18U G24A A35G A75G U78G | 0.03 |
| A5G G6C A20G U78C | 0.61 |
| A5G G6C A21G U60C U78C | 0.09 |

| Variant | self-cleavage |
| --- | --- |
| A5G G6C U25C G30C | 0.4 |
| A5G G6U A20G U78C | 0.14 |
| A5G G6U C37A U54C C71U U72C | 0.05 |
| A5G G6U U49C U51A A57G G70A | 0.07 |
| A5G G6U U49C U51A U80C | 1 |
| A5G G6U U60C | 0.4 |
| A5G G6U U80C | 0.2 |
| A5G G7A A13G | 0.58 |
| A5G G7A A15U U72C | 0.37 |
| A5G G7A A18G A35G U49A C68U | 0.06 |
| A5G G7A A18U G36U | 0.04 |
| A5G G7A A20U A28C U43C A56G | 0.07 |
| A5G G7A A47C A56U U72C | 0.08 |
| A5G G7A C23U A35U | 0.07 |
| A5G G7A G8U G19C U26C | 0.05 |
| A5G G7A U25C U26C G33A A65U | 0.04 |
| A5G G7A U25G C40U U80C | 0.34 |
| A5G G7A U26C C39U A45G U60A U69A | 0.05 |
| A5G G7A U41C C44G U51C U78C | 0.07 |
| A5G G7C A18G U25C U26A A64G | 0.08 |
| A5G G7C A20C U43A A56G | 0 |
| A5G G7C A28U | 0.47 |
| A5G G7C A28U U51A U54C U60C A75G | 0.14 |
| A5G G7C A28U U69C | 0.23 |

| Variant | self-cleavage |
| --- | --- |
| A5G G7C G19C A45G U60C | 0.07 |
| A5G G7C G63C | 0.23 |
| A5G G7C U43A U49C | 0.1 |
| A5G G7U A15U U48A C81U | 0.06 |
| A5G G7U A21G U60C A77G | 0.02 |
| A5G G7U A35G A56U | 0.13 |
| A5G G7U C12U A18U U67C | 0.06 |
| A5G G7U G9C G16C U43A U66C | 0.23 |
| A5G G7U G19U U26C U72C | 0.2 |
| A5G G7U U25C U58A U72C | 0.24 |
| A5G G7U U25C U69A A75U | 0.06 |
| A5G G8A A13C A28G U72C | 0.08 |
| A5G G8A A13G C40U U41A A57G C81U | 0.04 |
| A5G G8A A13G U26C U74C | 0.63 |
| A5G G8A A13U C38G | 0.34 |
| A5G G8A A15G C39G U43C U60C | 0.05 |
| A5G G8A A15G U25C U31A U80C | 0.07 |
| A5G G8A A15U U31C U54A A56C U74C | 0.08 |
| A5G G8A A18G A21G A45C G70U A75G | 0.05 |
| A5G G8A A18U U72A | 0.07 |
| A5G G8A A28G U48C A56G U60A U69C | 0.08 |
| A5G G8A A28U C38A | 0.08 |
| A5G G8A A28U U54C U78A | 0.47 |
| A5G G8A A35C U58C U69C U78A | 0.2 |

| Variant | self-cleavage |
| --- | --- |
| A5G G8A A45G | 0.29 |
| A5G G8A A47G U74C | 0.55 |
| A5G G8A C11G C27G U67C U76C A77G | 0.04 |
| A5G G8A C17U A20G U49A A56G C79U | 0.05 |
| A5G G8A G10A A57G U66C U72A U78C | 0.04 |
| A5G G8A G10C A56G U76C | 0.06 |
| A5G G8A G19U A47G | 0.07 |
| A5G G8A G24A | 0.08 |
| A5G G8A G36A U49C C68U | 0.05 |
| A5G G8A U25C A57G U74C A75G | 0.45 |
| A5G G8A U41C U48C U51G U60A U69A | 0.19 |
| A5G G8A U49A G53A | 0.08 |
| A5G G8A U80C | 0.26 |
| A5G G8C A18G U80A | 0.41 |
| A5G G8C A35C A45U A64G U80G | 0.06 |
| A5G G8C U26C U67C U72C | 0.07 |
| A5G G8U A15U A18G A21G C23A U69A | 0.13 |
| A5G G8U A35G U43C A56G | 0.35 |
| A5G G8U A35U U41C A56G U69C | 0.19 |
| A5G G8U U41C C44G | 0.06 |
| A5G G8U U54A | 0.74 |
| A5G G8U U66C A77G | 0.18 |
| A5G G9A A13G U41A C44A | 0.07 |
| A5G G9A A18C A35U A64G G70U | 0.05 |

| Variant | self-cleavage |
| --- | --- |
| A5G G9A A18U A35U G63U G70A | 0.07 |
| A5G G9A A21G U41A U43C U69C | 0.13 |
| A5G G9A A21G U69C C71U U80A | 0.23 |
| A5G G9A A35G A77G | 0.98 |
| A5G G9A A47G U69C C71U | 0.22 |
| A5G G9A C11G A20G A45U U67A | 0.05 |
| A5G G9A C23U G46U U80C | 0.04 |
| A5G G9A C39U A75C | 0.06 |
| A5G G9A G33A U43A A45U U60A A75G | 0.05 |
| A5G G9A G55U | 0.4 |
| A5G G9A U26C C38A A45C U72C U76A | 0.05 |
| A5G G9A U26C U54C | 0.37 |
| A5G G9A U43C U48C | 0.09 |
| A5G G9A U49C G55U U78C | 0.08 |
| A5G G9A U51A | 0.3 |
| A5G G9A U54C | 0.53 |
| A5G G9A U60C U72A | 0.38 |
| A5G G9C A56G A64G | 0.23 |
| A5G G9C C40A U69A | 0.27 |
| A5G G9U A15G | 0.21 |
| A5G G9U A18G U76C U80C | 0.07 |
| A5G G9U A21G A35G A47G U80A | 0.17 |
| A5G G9U A28G | 0.27 |
